The chains are these.
T1: Recombinant Human IL-17 (human, UniProt Q16552 20-155, limits assumed)
T1 sequence (looked up): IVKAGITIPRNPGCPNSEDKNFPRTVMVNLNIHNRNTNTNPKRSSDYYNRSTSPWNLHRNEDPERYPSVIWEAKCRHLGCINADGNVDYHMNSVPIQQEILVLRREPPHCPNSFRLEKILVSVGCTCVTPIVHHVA

B1: DVD2435 (bispecific antibody, human IgG1)
heavy: EVQLQESGPGLVKPSETLSLTCTVSGFSLSDYGVSWIRQPPGKGLEWLGLIWGGGDTYYNSPLKSRLTISKDNSKSQVSLKLSSVTAADTAVYYCAKQRTLWGYDLYGMDYWGQGTLVTVSSASTKGPEVQLVQSGAEVKKPGSSVKVSCKASGGSFGGYGIGWVRQAPGQGLEWMGGITPFFGFADYAQKFQGRVTITADESTTTAYMELSGLTSDDTAVYYCARDPNEFWGGYYSTHDFDSWGQGTTVTVSS[human IgG1 constant region left out]
light: DTVVTQSPAFLSVTPGEKVTITCITSTDIDVDMNWYQQKPDQPPKLLISQGNTLRPGVPSRFSSSGSGTDFTFTISSLEAEDAATYYCLQSDNLPLTFGQGTKLEIKRTVAAPEIVLTQSPDFQSVTPKEKVTITCRASQDIGSELHWYQQKPDQPPKLLIKYASHSTSGVPSRFSGSGSGTDFTLTINGLEAEDAGTYYCHQTDSLPYTFGPGTKVDIKRTVAAPSVFIFPPSDEQLKSGTASVVCLLNNFYPREAKVQWKVDNALQSGNSQESVTEQDSKDSTYSLSSTLTLSKADYEKHKVYACEVTHQGLSSPVTKSFNRGEC
B2: DVD2436 (bispecific antibody, human IgG1)
heavy: B1 heavy
light: DTVVTQSPAFLSVTPGEKVTITCITSTDIDVDMNWYQQKPDQPPKLLISQGNTLRPGVPSRFSSSGSGTDFTFTISSLEAEDAATYYCLQSDNLPLTFGQGTKLEIKRTVAAPSVFIFPPEIVLTQSPDFQSVTPKEKVTITCRASQDIGSELHWYQQKPDQPPKLLIKYASHSTSGVPSRFSGSGSGTDFTLTINGLEAEDAGTYYCHQTDSLPYTFGPGTKVDIKRTVAAPSVFIFPPSDEQLKSGTASVVCLLNNFYPREAKVQWKVDNALQSGNSQESVTEQDSKDSTYSLSSTLTLSKADYEKHKVYACEVTHQGLSSPVTKSFNRGEC
B3: DVD2433 (bispecific antibody, human IgG1)
heavy: EVQLQESGPGLVKPSETLSLTCTVSGFSLSDYGVSWIRQPPGKGLEWLGLIWGGGDTYYNSPLKSRLTISKDNSKSQVSLKLSSVTAADTAVYYCAKQRTLWGYDLYGMDYWGQGTLVTVSSASTKGPSVFPLAPEVQLVQSGAEVKKPGSSVKVSCKASGGSFGGYGIGWVRQAPGQGLEWMGGITPFFGFADYAQKFQGRVTITADESTTTAYMELSGLTSDDTAVYYCARDPNEFWGGYYSTHDFDSWGQGTTVTVSS[human IgG1 constant region left out]
light: DTQVTQSPSSLSASVGDRVTITCITSTDIDVDMNWYQQKPGKPPKLLISQGNTLRPGVPSRFSSSGSGTDFTFTISSLQPEDFATYYCLQSDNLPLTFGQGTKLEIKRTVAAPEIVLTQSPDFQSVTPKEKVTITCRASQDIGSELHWYQQKPDQPPKLLIKYASHSTSGVPSRFSGSGSGTDFTLTINGLEAEDAGTYYCHQTDSLPYTFGPGTKVDIKRTVAAPSVFIFPPSDEQLKSGTASVVCLLNNFYPREAKVQWKVDNALQSGNSQESVTEQDSKDSTYSLSSTLTLSKADYEKHKVYACEVTHQGLSSPVTKSFNRGEC
B4: DVD2439 (bispecific antibody, human IgG1)
heavy: EVQLVESGGGLVQPGGSLRLSCAVSGFTLSDYGVSWIRQAPGKGLEWLGLIWGGGDTYYNSPLKSRLTISKDNSKSTVYLQMNSLRAEDTAVYYCAKQRTLWGYDLYGMDYWGQGTLVTVSSASTKGPEVQLVQSGAEVKKPGSSVKVSCKASGGSFGGYGIGWVRQAPGQGLEWMGGITPFFGFADYAQKFQGRVTITADESTTTAYMELSGLTSDDTAVYYCARDPNEFWGGYYSTHDFDSWGQGTTVTVSS[human IgG1 constant region left out]
light: B3 light with D1E, Q3T
B5: DVD2441 (bispecific antibody, human IgG1)
heavy: EVQLVESGGGLVQPGGSLRLSCAVSGFTLSDYGVSWIRQAPGKGLEWLGLIWGGGDTYYNSPLKSRLTISKDNSKSTVYLQMNSLRAEDTAVYYCAKQRTLWGYDLYGMDYWGQGTLVTVSSASTKGPSVFPLAPEVQLVQSGAEVKKPGSSVKVSCKASGGSFGGYGIGWVRQAPGQGLEWMGGITPFFGFADYAQKFQGRVTITADESTTTAYMELSGLTSDDTAVYYCARDPNEFWGGYYSTHDFDSWGQGTTVTVSS[human IgG1 constant region left out]
light: B3 light with D1E, Q3T
B6: DVD2437 (bispecific antibody, human IgG1)
heavy: B3 heavy
light: B1 light
B7: DVD2434 (bispecific antibody, human IgG1)
heavy: B3 heavy
light: DTQVTQSPSSLSASVGDRVTITCITSTDIDVDMNWYQQKPGKPPKLLISQGNTLRPGVPSRFSSSGSGTDFTFTISSLQPEDFATYYCLQSDNLPLTFGQGTKLEIKRTVAAPSVFIFPPEIVLTQSPDFQSVTPKEKVTITCRASQDIGSELHWYQQKPDQPPKLLIKYASHSTSGVPSRFSGSGSGTDFTLTINGLEAEDAGTYYCHQTDSLPYTFGPGTKVDIKRTVAAPSVFIFPPSDEQLKSGTASVVCLLNNFYPREAKVQWKVDNALQSGNSQESVTEQDSKDSTYSLSSTLTLSKADYEKHKVYACEVTHQGLSSPVTKSFNRGEC
B8: DVD2438 (bispecific antibody, human IgG1)
heavy: B3 heavy
light: B2 light
B9: DVD2440 (bispecific antibody, human IgG1)
heavy: B4 heavy
light: B7 light with D1E, Q3T
B10: DVD2442 (bispecific antibody, human IgG1)
heavy: B5 heavy
light: B7 light with D1E, Q3T

Substitutions are numbered along the chain they refer to.

In the first experiment the target is Recombinant Human IL-1b (human, UniProt P01584 117-269). The experiment in a line: cell-based or functional assay.
Sequence of UniProt P01584 (P01584 117-269 limits assumed): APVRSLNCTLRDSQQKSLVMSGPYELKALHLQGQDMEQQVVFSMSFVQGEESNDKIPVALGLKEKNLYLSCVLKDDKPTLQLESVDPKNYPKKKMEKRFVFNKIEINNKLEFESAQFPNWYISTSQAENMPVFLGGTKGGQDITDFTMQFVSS
For the molecule B1, the N-Terminal VD IL-1β Neutralization Assay (IC50 nM) was 0.273 nM.
Same read-out and setting: the result for B2 reads 0.191 nM; that for B3, 0.295 nM; that for B4, 0.115 nM.
Still for that read-out and setting: the result for B5 reads 0.16 nM.
Regarding B6, the N-Terminal VD IL-1β Neutralization Assay (IC50 nM) came to 0.22 nM.
B7: the N-Terminal VD IL-1β Neutralization Assay (IC50 nM) stood at 0.298 nM.
As for B8, the N-Terminal VD IL-1β Neutralization Assay (IC50 nM) is 0.182 nM.
Still for that read-out and setting: as for B9, the figure is 0.222 nM; as for B10, 0.215 nM.

For another experiment, the target named is T1, Recombinant Human IL-17. The experiment in a line: cell-based or functional assay.
For the molecule B1, the C-Terminal VD IL17 Neutralization Assay (IC50 nM) is 0.863 nM.
As to B2, the C-Terminal VD IL17 Neutralization Assay (IC50 nM) was determined as 0.042 nM.
Same read-out and setting: as for B3, the figure is 0.125 nM; as for B4, 0.549 nM.
Same read-out and setting: the result for B5 reads 0.087 nM.
On the same count and under the same terms, the result for B6 reads 0.12 nM; that for B7, 0.055 nM; that for B8, 0.032 nM.
For the molecule B9, the C-Terminal VD IL17 Neutralization Assay (IC50 nM) turned out to be 0.055 nM.
Take B10: the C-Terminal VD IL17 Neutralization Assay (IC50 nM) worked out at 0.043 nM.

(Values after patent US20140271458A1 (AbbVie / Abbott, published 2014).)
